Measured values: the supplement of paper PMC4166925
± gives the standard deviation of the averaged measurements. In all, about 33,000 sequences were measured (“E-score (dimensionless, -0.5 to 0.5)”: median about -0.049, highest 2% from about 0.37 on). The list shows a part of the results.

Test system: T1, PmTbr T-box DNA-binding domain (GST fusion)
T1 sequence: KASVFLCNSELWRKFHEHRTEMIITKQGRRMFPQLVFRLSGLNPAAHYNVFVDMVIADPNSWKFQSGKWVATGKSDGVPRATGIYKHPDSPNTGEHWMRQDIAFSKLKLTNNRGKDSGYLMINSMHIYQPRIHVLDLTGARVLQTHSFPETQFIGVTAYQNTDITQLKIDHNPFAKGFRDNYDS
Assay: PBM E-score of 8-mer (E-score (dimensionless, -0.5 to 0.5)); Tbr is Tbrain of the sea star Patiria miniata (Pm) or the sea urchin Strongylocentrotus purpuratus (Sp); higher = stronger binding preference; most listed sequences are background and not binding sites
Conditions: the construct has about 5 more residues each side
Description: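 Universal protein-binding microarray (Agilent AMADID 016060, 60-bp probes with a 35-bp variable region) incubated with 200 nM GST-fused Patiria miniata Tbr T-box DNA-binding domain (residues 272-466) in PBS pH 7.5. Scored for every ungapped 8-mer (given with its reverse complement) by the Universal PBM Analysis Suite as E-score (modified Wilcoxon-Mann-Whitney enrichment, range -0.5 to 0.5; >0.45 counts as bound) and Z-score of median probe intensity. Two replicate arrays (datasets 1 and 2).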
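Also: 200 nM protein in PBS on universal arrays averaged over duplicate arrays.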

Sequence | PBM E-score of 8-mer
ACCTCACG | 0.269 ± 0.038
GGTATCGA | 0.0352 ± 0.024
CTAATGCC | 0.118 ± 0.048
AGAGGATG | 0.0588 ± 0.029
AACACAGG | 0.0564 ± 0.018
CGTGAACC | 0.229 ± 0.044
CTTCGGTA | -0.146 ± 0.048
AGTTCGAA | -0.211 ± 0.039
GTAACAAA | 0.107 ± 0.021
CACTGACC | -0.0204 ± 0.064
CTCTCAAC | 0.0948 ± 0.01
GCCTCTTA | -0.0658 ± 0.019
AGGCTAAG | -0.143 ± 0.082
CGATTACC | -0.0566 ± 0.046
AGACAAAT | -0.0765 ± 0.0098
CTTCGCTA | 0.0621 ± 0.035
TCAGAGAA | -0.0818 ± 0.027
CATATAAG | -0.0999 ± 0.03
ACCGTATC | -0.0999 ± 0.068
CTTCATAA | 0.015 ± 0.055
AATACCGC | 0.00922 ± 0.035
CCACTAGG | -0.112 ± 0.044
CATTGACC | -0.161 ± 0.099
ACTTCCAT | 0.0717 ± 0.077
GGGTCCTA | -0.208 ± 0.049

Sequence | PBM E-score of 8-mer
GGTCGCAC | 0.373 ± 0.018
CGACAACA | 0.274 ± 0.023
ATTTTCCA | 0.0388 ± 0.093
GCTGTGCC | 0.148 ± 0.03
CCAATAAG | -0.115 ± 0.033
GAGCTACC | -0.0818 ± 0.12
GAGAAGCC | -0.134 ± 0.014
TGCCCGAA | -0.112 ± 0.12
GTATCCGA | -0.227 ± 0.015
CCACGGAA | -0.116 ± 0.063
GAAGTCGC | 0.167 ± 0.015
ACGCCTTA | 0.3106 ± 0.0022
CGTCAGTA | 0.0359 ± 0.018
AAAACGAG | -0.213 ± 0.052
CCGGCGAG | -0.0425 ± 0.019
GAGGGAGC | -0.0495 ± 0.077
AGGTTTAA | -0.0552 ± 0.0037
TGATATAA | 0.104 ± 0.029
ATCCCCTG | -0.119 ± 0.089
ACTGCTTG | -0.144 ± 0.052
ACTACAGA | -0.0956 ± 0.069
GTCATCAC | 0.2787 ± 0.00098
GCCTCTCC | -0.183 ± 0.0065
AATATTAG | 0.0424 ± 0.036
ATCGCGCA | 0.119 ± 0.0083

Sequence | PBM E-score of 8-mer
GAACACAA | 0.00999 ± 0.046
AAGCCATC | -0.164 ± 0.047
ATGCTGAA | -0.23181 ± 2.8e-05
CAGCCGAC | 0.00225 ± 0.012
ATTAGTTA | -0.178 ± 0.053
CACGTCCA | 0.131 ± 0.039
AGACCTGA | -0.102 ± 0.055
TCCTTAGA | -0.289 ± 0.043
AGACTATC | -0.0496 ± 0.00072
ATTCAGTG | 0.0227 ± 0.023
TAGGGAGA | -0.156 ± 0.022
AGGCGTGC | 0.158 ± 0.011
ACAGTAGG | -0.0261 ± 0.0057
AGCGCACG | 0.0955 ± 0.067
AACACTGA | 0.182 ± 0.069
GCAGAGCC | 0.0176 ± 0.016
CTATTGCC | -0.254 ± 0.0039
AACTCATC | -0.12 ± 0.053
GGGCTAAC | 0.0916 ± 0.0092
CGGCGTGC | -0.0675 ± 0.043
AGAATCAA | -0.109 ± 0.1
AACGGAAG | -0.135 ± 0.088
CCGTTCAA | -0.12 ± 0.032
GTAATCCA | -0.117 ± 0.021
CACGCTAG | 0.0508 ± 0.031

Sequence | PBM E-score of 8-mer
CCGAAACC | -0.24 ± 0.0048
ACTCCATG | -0.0836 ± 0.065
GTGCTACA | 0.216 ± 0.008
GGATCCCC | -0.0056 ± 0.027
CATCTGCA | -0.187 ± 0.045
CTTGGCCC | -0.22 ± 0.073
AGCTTGTG | 0.143 ± 0.005
GTTGCCCA | -0.217 ± 0.0084
TTCGAAAA | -0.215 ± 0.038
ATTTAGCA | 0.308 ± 0.04
TAGCAGAA | -0.117 ± 0.1
AGGATGAG | -0.0868 ± 0.03
AGGGAGAC | -0.221 ± 0.0058
CCTCTGGC | -0.0366 ± 0.16
ACGTGGAA | -0.0444 ± 0.09
AAGTAGTA | -0.0335 ± 0.018
ATACTCCC | -0.231 ± 0.014
CGCGAATC | 0.349 ± 0.013
ACCAAGAA | -0.0879 ± 0.0044
CAATGAAG | 0.0359 ± 0.053
AATAGTAT | -0.0339 ± 0.063
ATGGGGCC | -0.131 ± 0.058
AACAGAGA | -0.0359 ± 0.0044
CTATGTTC | -0.1107 ± 0.00022
CCATCAAC | 0.0186 ± 0.048

Sequence | PBM E-score of 8-mer
AGACCACT | -0.234 ± 0.093
AATAAGTC | -0.0952 ± 0.073
GCCAGCGA | 0.0801 ± 0.013
AACTTATT | -0.181 ± 0.039
AACGGTTA | 0.0723 ± 0.092
ACACTAGC | 0.204 ± 0.018
CGGACACG | 0.187 ± 0.0075
AACTGTAG | -0.00946 ± 0.017
AAGTATCC | -0.128 ± 0.069
CGGGGGTC | -0.203 ± 0.0094
AAATACAA | -0.267 ± 0.06
GCCTGTAC | -0.194 ± 0.036
CACTTCGC | 0.369 ± 0.014
CATGAAAA | -0.257 ± 0.055
GGGAACCC | -0.0946 ± 0.0084
CCGGCTCG | -0.286 ± 0.035
CGACGAGA | 0.118 ± 0.022
TACATCAA | -0.2435 ± 0.0014
CCGACTCG | -0.0676 ± 0.02
AGATTTGG | -0.0243 ± 0.012
CACAACCA | 0.151 ± 0.068
GAGTGGGC | -0.156 ± 0.07
AATTCTGC | 0.0123 ± 0.029
AAGCGGCG | 0.000685 ± 0.032
CTAGTCAA | -0.0553 ± 0.034

Sequence | PBM E-score of 8-mer
GGGTAGAC | -0.163 ± 0.012
CGGCCAAG | -0.0187 ± 0.09
ACCATGAT | 0.0699 ± 0.037
TTGGCAAA | 0.134 ± 0.012
TAATGGCA | 0.0707 ± 0.024
CTCTTGCA | -0.12 ± 0.023
ATCTCACC | 0.409 ± 0.0061
ACCTTGAC | 0.319 ± 0.045
ACATCCTC | 0.153 ± 0.036
CGCTCGCC | 0.00704 ± 0.024
CTCCGCGA | 0.219 ± 0.0075
AGTCTCCA | -0.191 ± 0.025
GGTGTGTA | 0.341 ± 0.013
GCTCAAGA | -0.114 ± 0.0041
CTGTATTC | -0.0466 ± 0.024
CCATTGCC | -0.0332 ± 0.013
CCGAATCC | -0.201 ± 0.01
CCGATGAG | -0.275 ± 0.033
ACGCTAAT | 0.114 ± 0.018
CAGGACGG | -0.224 ± 0.018
ACAGTGCT | -0.0609 ± 0.0039
ATCTCAAT | -0.0703 ± 0.055
AGTCACTG | -0.125 ± 0.055
CTCCTTAA | -0.0466 ± 0.0025
GGCTGGAC | -0.233 ± 0.016

Sequence | PBM E-score of 8-mer
ATTTAAAC | -0.0947 ± 0.12
ACGAACTC | 0.0164 ± 0.041
ATATGTCG | 0.134 ± 0.029
AATATACA | -0.199 ± 0.034
CGTGTTCA | 0.0211 ± 0.032
GGTGGTGA | 0.294 ± 0.042
TAACCTTA | -0.0986 ± 0.065
CACTCACC | 0.295 ± 0.04
AAGGCTCT | -0.227 ± 0.0089
AGTCCCCC | -0.123 ± 0.034
AGAAGAAT | -0.138 ± 0.095
ATGTCCCC | -0.139 ± 0.0077
ATTACTTC | -0.201 ± 0.065
CCTTTGGA | -0.044 ± 0.011
CTCTTAAA | -0.0992 ± 0.023
CTTATATC | -0.0871 ± 0.07
AGGATAGA | -0.1812 ± 0.0017
AGATCCCC | -0.158 ± 0.02
CCTAATCA | 0.0346 ± 0.0071
AGCCCATG | -0.105 ± 0.042
AGTCTCGG | -0.164 ± 0.057
ATGGCATA | -0.133 ± 0.013
